# Tested on: CEM cell line
# Assay: Proliferation assay, cannabinoids alone and paired (MTT, 48 h)
# Conditions: Homo sapiens, CCRF-CEM, read-out: IC50 (concentration required to reduce the cell number by 50%)
compound,measurement,value
"CCCCCc1cc(O)c2c(c1)OC(C)(C)[C@@H]1CCC(C)=C[C@@H]21 [THC, Tetrahydrocannabinol]",IC50,13 ± 0.49 µM

# — patent publication US12161607B2, “Combination of cannabinoids in the treatment of leukemia” (Jazz Pharmaceuticals Research UK Limited, priority 2017, dated 2024)
